The values below come from the supplement of paper PMC8047034.

Where a name gives a salt, the structure may show the parent alone. Some of the results follow. Most values come without repeats; read them as rough.

One experiment concerns OVCAR4. The experiment can be described thus: log2 surviving fraction (library drug vs vehicle, or drug + carboplatin vs carboplatin alone; relative to plate median); ovarian cancer lines: OVCAR4 is platinum-sensitive and Ov4Carbo platinum-resistant; higher = more cell survival. Conditions: library drug concentration 10 µM, 7 days.
The next experiment has as its system Ov4Carbo. Described as above. To be noted: library drug concentration 10 µM, 7 days.

In the case of `CC(C)(C)c1ccc(C(O)CCCN2CCC(C(O)(c3ccccc3)c3ccccc3)CC2)cc1` (stereo not given) [Terfenadine], the log2 surviving fraction was -8.61 in the experiment on OVCAR4 (carboplatin co-treatment 0 µM), -2.29 in the experiment on OVCAR4 (carboplatin co-treatment 5 µM), -3.28 in the experiment on Ov4Carbo (carboplatin co-treatment 0 µM) and -2.88 in the experiment with Ov4Carbo (carboplatin co-treatment 5 µM).
On to `CCCCC1(COC(=O)CCC(=O)O)C(=O)N(c2ccccc2)N(c2ccccc2)C1=O` [Suxibuzone], for which the log2 surviving fraction was 0.756 with OVCAR4 (carboplatin co-treatment 0 µM), -0.356 with OVCAR4 (carboplatin co-treatment 5 µM), 0.355 in the experiment on Ov4Carbo (carboplatin co-treatment 0 µM) and 0.172 with Ov4Carbo (carboplatin co-treatment 5 µM).
As to `Oc1ncnc2[nH]ncc12` [Allopurinol (Zyloprim)], the log2 surviving fraction with OVCAR4 (carboplatin co-treatment 0 µM) was 0.807; with OVCAR4 (carboplatin co-treatment 5 µM), 0.562; in the experiment on Ov4Carbo (carboplatin co-treatment 0 µM) it was -0.243; in the experiment with Ov4Carbo (carboplatin co-treatment 5 µM), 0.167.
Regarding `Clc1ccc(CCC(Cn2ccnc2)Sc2c(Cl)cccc2Cl)cc1` (stereo not given) [Butoconazole nitrate], the log2 surviving fraction with OVCAR4 (carboplatin co-treatment 0 µM) was -1.77; in the experiment on OVCAR4 (carboplatin co-treatment 5 µM) it was -2.24; in the experiment on Ov4Carbo (carboplatin co-treatment 0 µM), -2.41; in the experiment with Ov4Carbo (carboplatin co-treatment 5 µM), -2.75.
Taken in the same sequence, the figures for `Clc1ccc(CSC(Cn2ccnc2)c2ccc(Cl)cc2Cl)cc1` (stereo not given) [Sulconazole Nitrate] were -2.06, -1.62, -1.75 and -1.68.
Taken in the same sequence, the figures for `CC(=O)OCC(=O)NCCCOc1cccc(CN2CCCCC2)c1` [Roxatidine acetate HCl] were 0.98, 0.885, 0.867 and -1.96.
Taken in the same sequence, the figures for `CC(C)(CO)[C@@H](O)C(=O)NCCC(=O)O` [Pantothenic acid (pantothenate)] were 0.208, 0.619, 0.429 and 0.371.
On to `O=P(O)(O)C(O)(Cc1cccnc1)P(=O)(O)O` [Risedronic acid (Actonel)], for which the log2 surviving fraction in the experiment with OVCAR4 (carboplatin co-treatment 0 µM) is -0.221; in the experiment with OVCAR4 (carboplatin co-treatment 5 µM), -1.16; in the experiment on Ov4Carbo (carboplatin co-treatment 0 µM), -0.269; in the experiment on Ov4Carbo (carboplatin co-treatment 5 µM), 0.135.
In the case of `C[C@]12CCC(=O)C=C1C=C[C@@H]1[C@@H]2CC[C@@]2(C)[C@H]1CC[C@@]2(O)CCC(=O)O` [Potassium Canrenoate], the log2 surviving fraction with OVCAR4 (carboplatin co-treatment 0 µM) is -4.04; in the experiment with OVCAR4 (carboplatin co-treatment 5 µM), -0.52; with Ov4Carbo (carboplatin co-treatment 0 µM), 0.226; with Ov4Carbo (carboplatin co-treatment 5 µM), -0.495.
As to `NC(CO)(CO)CO` [Trometamol], the log2 surviving fraction in the experiment on OVCAR4 (carboplatin co-treatment 0 µM) was -0.686; in the experiment with OVCAR4 (carboplatin co-treatment 5 µM) it was 0.00589; in the experiment on Ov4Carbo (carboplatin co-treatment 0 µM) it was -0.0295; in the experiment with Ov4Carbo (carboplatin co-treatment 5 µM), -0.42.
